T1: UNK ZnF1-3 (human, UniProt Q9C0B0 31-174)
T1 sequence: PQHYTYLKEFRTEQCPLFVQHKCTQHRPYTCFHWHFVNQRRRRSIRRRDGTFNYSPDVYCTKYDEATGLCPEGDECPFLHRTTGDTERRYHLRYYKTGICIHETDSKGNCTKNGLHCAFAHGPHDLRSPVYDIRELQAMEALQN

B1: chr5:70837361:70837362:+_ENSG00000145734_ENST00000358731|hu_hu|FALSE|FALSE (ssRNA)
RNA: GGGAGUUCUACAGUCCGACGAUCUGAUGCAGGAGAUGUAGUAAUGACAGGUGAAGAAAGUUCCUGACAUUCAUGAACAAUUUUGUGAUUUACAUUAUCUAGGCUAGAAGGAAUAUGGCUUUUAUCCUUUGAAUGAACAUGAGGCAACAGAGGAUUGAGCAUCA
B2: chr2:202488911:202488912:-_ENSG00000155755_ENST00000286196|hu_mus|hu_hu_hu_mus_False|28_28 (ssRNA)
RNA: GGGAGUUCUACAGUCCGACGAUCAUUGAAACAUUUUUCAUAAUCUCCAGUAGCAUUUCAGCAUUAUGUAACAAAAGCUCAAUUGUAAAUACAUGUAUCUUAUAAAAAUAAAAAUACAAACACGAGUGGGGAGCGCAGGCGCCACAACAGAGGAUUGAGCAUCA
B3: chr16:94646735:94646736:+_ENSMUSG00000040785_ENSMUST00000117648|mus_mus|FALSE|FALSE (ssRNA)
RNA: GGGAGUUCUACAGUCCGACGAUCUGUUUUUAACUUUUUCCAGCAGUUCAUAUGAAAUUCUACCUUACAGUAUUGGCAACAGCUAAUUCGUAUAAAACCCUUAAAGUCUGGAUCAGUUAAGUAAAUCUGAAUUUUAGAAUAUCCCAACAGAGGAUUGAGCAUCA
B4: chr9:91931296:91931297:+_ENSG00000123975_ENST00000314355|hu_hu|hu_hu_hu_mus_True|48_78 (ssRNA)
RNA: GGGAGUUCUACAGUCCGACGAUCAGAUUAGAUGAUCCCAGCUGCACUUCAUUUUUGUUGAUCUUUUGGAAGAGGUCGUCUAAAGAGAAGAAUAUGUGGUUCUGGCUCAUGAAUCAUGUAAUGAACCCAUCCUAGACUCUGUUGCAACAGAGGAUUGAGCAUCA
B5: chr7:75932113:75932114:+_ENSG00000106211_ENST00000248553|hu_hu|hu_hu_hu_mus_False|8_38 (ssRNA)
RNA: GGGAGUUCUACAGUCCGACGAUCCUGCGACCACUCAUCGGGCAACCGGGGCACCCCGAAAGCUUGAUCGAAGAGGCGGCUGUGUGCAGGGUACCAGCGGAAGGGGUGUUCCCAGCUCGGGCUCCGCAGCGAGAAGGAGGGCACCAACAGAGGAUUGAGCAUCA
B6: 107621200_107626530_929_CDS_ENSG00000091136_ENST00000393561|human|control|control (ssRNA)
RNA: GGGAGUUCUACAGUCCGACGAUCUCCCAAAGUAUGCAGUUUCACAAACUUGAUUCUCAAGUUGGUAAUUUUUAAUAAAUUCUGUAUCCUUGGGCUAUAAGGAUCUUCUAUUUUGAAAGCAGGAUCUAAAGCACGAAAUAUCACCAACAGAGGAUUGAGCAUCA
B7: chr9:119461815:119461816:+_ENSG00000119401_ENST00000373983|hu_mus|FALSE|FALSE (ssRNA)
RNA: GGGAGUUCUACAGUCCGACGAUCCUUGGGUGUGAGGGCGAUGCCCACUGGACAGGUAAGGCCCUCUCGAAUAAGGACGCUGUAGCCACCGCCCUUGGGAAAAUGGAGAAUUUCCUUGCGGCUGCUAUCUGCCACAAUGAGGUCCAACAGAGGAUUGAGCAUCA
B8: chr1:180971808:180971809:-_ENSG00000135823_ENST00000258301|hu_hu|FALSE|FALSE (ssRNA)
RNA: GGGAGUUCUACAGUCCGACGAUCUUUUCUUAUACUCAAUUCAGUUGCAUCAAGGUUAAAUUUUCUAGGAUUUGCUUCAACUAUGCUGAUGGUUUCAUCAAGGUCCUCUAGAUCCCACUCUAUGCUCCGGAGGUUAUUUCUCAGCAACAGAGGAUUGAGCAUCA
B9: 117191750_117192490_1920_CDS_ENSMUSG00000066232_ENSMUST00000084731|mouse|control|control (ssRNA)
RNA: GGGAGUUCUACAGUCCGACGAUCAUGUGCCAAAGAAAAGAUCUCCUCAUAGAAUUCUAAGACAUGCUGUUGUAGAACGGUCCCAAUGACUUGUAAGCAGAUUCCCUCAAGCUGCUGGGUUAUCUCUUUGUGAUCUUCAACCACCAACAGAGGAUUGAGCAUCA
B10: 140892577_140894032_266_ncRNA_ENSMUSG00000030979_ENSMUST00000135760|mouse|control|control (ssRNA)
RNA: GGGAGUUCUACAGUCCGACGAUCCUUCAGGAUGAGACAGCUUUUCUGACAAACUGGGGAGAGACAUAAACUCAAAUGACAGCACAGGAAUCAGUGUGGCUUCUAGGCCACACAAUCGCAGCUCCUGGAUAUAUGGAUCCAGGCCAACAGAGGAUUGAGCAUCA
B11: chr12:60073987:60073988:-_ENSMUSG00000020986_ENSMUST00000021375|perfect_dup|FALSE|FALSE (ssRNA)
RNA: GGGAGUUCUACAGUCCGACGAUCCUGGGUCAGAUCCUGACGCAUGAAAUGGUGACGAUAGUAUGAACUCUCAUCAGGACUAUUGUUAAAAACUUGCAAGAAAGGAGAUCUUCUUAAAUGAAACAUAAACUGAGGAUAAAGAGACAACAGAGGAUUGAGCAUCA
B12: chr1:115279457:115279458:-_ENSG00000009307_ENST00000339438|hu_mus|FALSE|FALSE (ssRNA)
RNA: GGGAGUUCUACAGUCCGACGAUCGUUAAUUUUAUCUCCAGUUUCCAGCUGAACAUUCCCUUCCACAUCUUCAGAGGUGUAAGUCAGAUAAAAUACUUCCCCAUUACGUUCGUAGCAUACACUCCCUGUUGGACUCUGACCCGGCAACAGAGGAUUGAGCAUCA
B13: chr9:127920631:127920632:-_ENSG00000119414_ENST00000456642|hu_hu|FALSE|FALSE (ssRNA)
RNA: GGGAGUUCUACAGUCCGACGAUCAAUACGAUCAGGCCAUUUAGCCUUUAAUGCAAGAAGGUAAGUGAAGGUCUCCAAACUAUAGUAACCUCUGUCUACAAAAUCACCCAUAAAUAUGUAGUUUGUGUCAGGAACCUGACCUCCCAACAGAGGAUUGAGCAUCA
B14: 86275927_86276047_1213_CDS_ENSMUSG00000042350_ENSMUST00000043169|mouse|control|control (ssRNA)
RNA: GGGAGUUCUACAGUCCGACGAUCGUGCUCAUCUCUCAGGGACAUGGAAUUGUUGGUUGGGUUGUCAUACUCAUCUCGGGGCACUAUCUGCAGAGUGUGUGGCUGCCCACACGUCAACACCAGAGUAGAAAAAUGGCACACAAUCAACAGAGGAUUGAGCAUCA
B15: chr14:46222469:46222470:-_ENSMUSG00000037697_ENSMUST00000051310|mus_mus|FALSE|FALSE (ssRNA)
RNA: GGGAGUUCUACAGUCCGACGAUCACUGUCUGAAACUGAGGUAGGUUCUUUUGCUGGGUUGAGAAAAUUUGGCUUCAUAUGCUCAUAAGGUAGAGGGUUUGAAGUGUUGUACCAGUGGAUCUGGACUGGAGAAAUGUUGCUGUACAACAGAGGAUUGAGCAUCA
B16: chr1:175956164:175956165:-_ENSG00000143207_ENST00000367666|hu_hu|FALSE|FALSE (ssRNA)
RNA: GGGAGUUCUACAGUCCGACGAUCAGCAGCAAUCAGCACAUUGGACUCCCCAUCUGGUAGUGCCCUCCAGCACACAGCACUAACAAAUUCAUUUGUAUCAUCUUCUUUUCGGUCUUUGUCGAGAACACUUUUGACUGUAUCAAACAACAGAGGAUUGAGCAUCA
B17: 56799580_56800688_1359_CDS_ENSMUSG00000028431_ENSMUST00000030140|mouse|control|control (ssRNA)
RNA: GGGAGUUCUACAGUCCGACGAUCAGGUGGGACGACCGUCUGCCGAAAGACUGUCACCAACACCCUGUUUCCAUCAAUAACAGCCACAUUUGCCAAGUCAUUGGCACUAUUCCCAGAGCUCCGAUCAGUGGUCCAGUGCCAGUCCAACAGAGGAUUGAGCAUCA
B18: 56575270_56575390_1441_CDS_ENSMUSG00000013236_ENSMUST00000086828|mouse|control|control (ssRNA)
RNA: GGGAGUUCUACAGUCCGACGAUCGAUCAUGGUGGUGGCGCUGAGCAUGCGGGCCUGAACAUUCCUGGGAGCGCUGGCUGGUGCCUGCUCACCUGUGCGGGUCACCACCGAUUCACUGGGAGGGCCCUGGCCAAUGGAGUUGACCAACAGAGGAUUGAGCAUCA
B19: 66466729_66467468_1158_3pUTR_ENSMUSG00000024101_ENSMUST00000116556|mouse|control|control (ssRNA)
RNA: GGGAGUUCUACAGUCCGACGAUCACUCGAGCAGAGUGGCCCGGCCACUGGAGGGGUCAACCACCUCCUUAGGGGCUCCCUGAACAGAGGCUGUGUGGGCCAUGCUGCUGCUAGAGUCUUCUUCCCUGGCAACCUGGCCAGCAGCAACAGAGGAUUGAGCAUCA
B20: chr11:18536373:18536374:-_ENSG00000074319_ENST00000251968|hu_mus|FALSE|FALSE (ssRNA)
RNA: GGGAGUUCUACAGUCCGACGAUCAUAUGGGUAUGUGUCCAGCAGCCACAGGCAUAUUGGAAUAUUAUAUAUAUUACCUCGAUAACGCACUGGGAUUGUACCAGUGAGGUUCACCAGCUCCCUGGAACUGCCAUCAUUAAAAACCAACAGAGGAUUGAGCAUCA
B21: chr1:60041781:60041782:+_ENSMUSG00000041040_ENSMUST00000036540|mus_hu|mus_mus_mus_hu_False|38_78 (ssRNA)
RNA: GGGAGUUCUACAGUCCGACGAUCAAGUUUACAAUAGUAAAGUAAAUGCAGUAGUGGAAUGGCAAGUUUUAUUUUCCUUCACAAAAGAAAAUCUUUAGAUCUCAGUUCUAGUCUUGGACAUAGUGAAAGCUAUAAAUUCUGACUCAACAGAGGAUUGAGCAUCA
B22: chr2:5814250:5814251:-_ENSMUSG00000025816_ENSMUST00000102981|mus_hu|mus_mus_mus_hu_True|28_68 (ssRNA)
RNA: GGGAGUUCUACAGUCCGACGAUCUUCCUUUCCGGUUUCUGAAUUUCUGGUAGAACUGCACAGAAUGGUUUAAUAACUUCUAAAAAUUUGAUGCCCAUGGCUGCUGCUCAGCACACCCAGGGGGAAACCGCGGCCUCGGCGCUGCAACAGAGGAUUGAGCAUCA

The text below walks through data of article PMC12136788.

This is one part of the list.

The experiment deals with T1, UNK ZnF1-3. The experiment is described as follows: nsRBNS (natural sequence RNA bind-n-seq); RBNS binding buffer (assumed for nsRBNS): 25 mM Tris pH 7.5, 150 mM KCl, 3 mM MgCl2, 0.01% Triton X-100, 500 ug/ml BSA, 20 U/ml SUPERase-In, 4 C; UNK is unkempt and MSI1 is Musashi-1; names of the RNAs are library labels; protein concentration not given here; high values mean tight binding.
The molecule B1 showed a binding signal of 0.842 enrichment R.

Molecule B2 had a binding signal of 1.14 enrichment R.

B3 came in with a binding signal of 0.716 enrichment R.

Turning to B4, the binding signal amounted to 0.967 enrichment R.

B5 displayed a binding signal of 1.53 enrichment R.

Regarding B6, the binding signal is 0.675 enrichment R.

B7 registered a binding signal of 0.643 enrichment R.

Consider B8, for which the binding signal amounted to 0.431 enrichment R.

B9: the binding signal was 0.754 enrichment R.

In turn, B10 yielded a binding signal of 1.55 enrichment R.

Consider B11, for which the binding signal is 1.41 enrichment R.

B12: the binding signal turned out to be 0.834 enrichment R.

Regarding B13, the binding signal worked out at 1.08 enrichment R.

B14: the binding signal came out at 1.18 enrichment R.

With B15, the binding signal was 1.23 enrichment R.

Molecule B16 had a binding signal of 0.985 enrichment R.

In turn, B17 gave a binding signal of 0.638 enrichment R.

B18: the binding signal was determined as 0.737 enrichment R.

On to B19, for which the binding signal came out at 0.498 enrichment R.

Molecule B20 yielded a binding signal of 1.08 enrichment R.

B21: the binding signal came to 0.455 enrichment R.

The molecule B22 yielded a binding signal of 1.12 enrichment R.
